Experimental data from PubChem BioAssay AID1508624 (National Center for Advancing Translational Sciences (NCATS), 2021).
Hit rate of the full screen: of about 48,000 compounds, about 120 (0.25%) were called active. Inconclusive results (about 4%) are left out. The call rests on the fitted dose curve; in most records, active means well fitted activation curve with a large enough effect; inconclusive means small, poorly fitted or top-dose-only effect, or another doubt; inactive means no such curve, though single readings can be large or run the other way. This is one part of the list.

Test: Primary qHTS for Identification of Small Molecule Activators of Huntingtin-Antisense Promoter Activity; further: nearly all actives have a fitted effect of over 55% in size
Settings: HEK293 HTT-AS promoter firefly luciferase reporter, 24 h; series mostly up to 57.5 µM; activity change, positive = activation: at the top concentration
Summary of the method: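 Luminescence was read after Dual-Glo reagent and a 10 min room-temperature incubation. Values were normalized to vehicle (0% activity) and zero RLU (-100% activity). Reporter HEK293 cells had been exposed to compounds (up to 57.5 uM final) for 24 h.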

Activity change, positive = activation, inactive:
CCN(CC)CCNC(=O)c1cc2c(=O)oc3ccc(C)cc3c2s1 -7.77%
Cc1ccc(NC(=O)Cn2nnc3sc4c(c3c2=O)CCCC4)c(C)c1 -2.16%
Cc1cc(C)c(Cn2c3ccccc3c3cnn(CC(=O)NCC(C)c4ccccc4)c(=O)c32)c(C)c1 (configuration not stated) -11.2%
O=C(/C=C/c1ccc(Cl)cc1)Nc1nc(-c2cccs2)ns1 -37.2%
CCn1cc(C(=O)NCc2ccc(F)cc2)c(=O)c2cc(S(=O)(=O)N(C)C)ccc21 -7.75%
COc1cc(OC)c(NC(=O)CCNS(=O)(=O)c2ccc3c(c2)oc(=O)n3C)cc1Cl 21.1%
COc1ccc(-n2c(CCC(=O)O)ccc2-c2ccccc2)c(OC)c1 -15.7%
CC(=O)N1CCCc2cc(S(=O)(=O)N(Cc3ccccc3)C(C)C)ccc21 -37.5%
CCN1C(=O)c2ccccc2Sc2ccc(NC(=O)Nc3ccc(C(C)=O)cc3)cc21 -36.6%
Cc1ccccc1CNCCCSc1nnnn1-c1ccccc1 -2.08%
Cc1ccc2oc(=O)c3cnn(CC(=O)Nc4ccc(Br)cc4C)c3c2c1 -8.39%
CCc1cccc(C)c1NC(=O)COCc1cc(-c2ccc3c(c2)OCO3)on1 -25.4%
Cc1cc(C)c(Cn2c(C)c(CNCc3ccccc3C)c(C(=O)O)c2C)c(C)c1 -17.8%
CC1CCCCN1C(=O)CSc1nc2ccccc2nc1Cc1ccc(Cl)cc1 (configuration not stated) -41%
O=C(c1ccco1)N(Cc1cccnc1)c1nc2c(F)cccc2s1 -11.9%
Cc1cccc(NC(=O)c2ccc(F)c(S(=O)(=O)N(C)C3CCCCC3)c2)c1 -28.4%
CCOc1ccc(C(=O)N2CCN(Cc3cc(=O)n4nc(-c5cccc(OC)c5)sc4n3)CC2)cc1 0.523%
COc1ccc(NC(=O)C(C)n2nc(C)c3c(C)n(-c4ccccc4)nc3c2=O)cc1Cl (configuration not stated) -13.9%
CCOCCCNC(=O)C(c1ccc(Cl)cc1)N(Cc1ccc2c(c1)OCO2)C(=O)c1ccccc1O (configuration not stated) -9.98%
CCN(Cc1nc(-c2ccc(OC)cc2)oc1C)S(=O)(=O)c1ccc(Cl)cc1 -9.7%
COc1ccc(-c2nc(S(=O)(=O)c3ccccc3)c(N3CCCCC3)o2)cc1 16.5%
COc1ccc(N2CCN(C(=O)c3cccn4c(=O)c5ccc(Cl)cc5nc34)CC2)cc1 2.92%
COc1ccc(NCc2nc3ccccc3n2CCOc2ccc(C)cc2)cc1 -52.5%
O=C(NCC(c1ccc(Cl)cc1)N1CCCCC1)c1ccccc1 (configuration not stated) -8.26%
CCCOc1ccc(C(=O)N(Cc2cccs2)C2CCS(=O)(=O)C2)cc1 (configuration not stated) -4.82%
Cc1ccc(NCc2nc3ccccc3n2CCOc2ccccc2C)cc1 -3.05%
COc1cc(OC)cc(-c2nc3nc(C)c(CCC(=O)Nc4ccc(C)cc4)c(C)n3n2)c1 -2.03%
Nc1c(C(=O)Nc2ccccc2Cl)nnn1Cc1cccc(Cl)c1 -14.8%
CCNc1nc2c(c(=O)n(C)c(=O)n2C)n1CC(O)COc1ccccc1 (configuration not stated) -22.1%
COC(=O)c1cc(NC(=O)c2cnc(SC)nc2-c2ccccc2)cc(C(=O)OC)c1 -5.5%
Cc1c(CCNS(=O)(=O)c2ccccc2)sc2nc(-c3ccc(Cl)cc3)nn12 -38.1%
Cc1c2cnn(CC(=O)O)c(=O)c2c(C)n1Cc1cccc(Cl)c1 0.157%
O=C(CC1N=C2c3ccccc3N=C(SCc3ccc(Cl)cc3)N2C1=O)NC1CCCCC1 (configuration not stated) 17.7%
Cc1ccc(CNC(=O)COCc2cc(-c3ccc4c(c3)OCO4)on2)cc1 3.37%
CCOc1ccc2cc(-c3nnc(Nc4ccccc4F)s3)c(=O)oc2c1 -1.13%
Cc1ccc(-c2cnc(NCc3ccc(C(C)C)cc3)n2C)cc1 -15.5%
O=C(NCc1cccc(Br)c1)c1ccc(-n2cnc3cccnc32)cc1 -13.4%
Cc1ccc(-n2ncc3c(N4CCC(C)CC4)ncnc32)cc1C -38.8%
Cc1cccc(-c2noc(CNC(=O)c3ccc(C)cc3C)n2)c1 -1.5% [at 11.5 µM, percent change from vehicle, -100% = no light]
COc1ccc(C(C(=O)NCc2ccccc2)N(C(=O)Cn2nnc3ccccc32)c2ccc(F)cc2)cc1 (configuration not stated) -10.9%
Cc1cc(C)c(S(=O)(=O)NCC(c2ccc(N(C)C)cc2)N2CCc3ccccc32)c(C)c1 (configuration not stated) -21.9%
CCOc1ccccc1CNC(=O)CSc1n[nH]c(-c2ccccc2Cl)n1 -23.1%
COc1ccc(CNC(=O)Cc2coc3ccc(C(C)C)cc23)cc1 -27%
O=C(CN1C(=O)COc2ccc(S(=O)(=O)N3CCCCC3)cc21)NCc1ccccc1Cl -26.2%
CCOC(=O)c1ccc(Nc2nc(C(=O)OCC)nc3ccccc23)cc1 -52.5%
Cc1ccc(C)c(CN2C(=O)c3ccccc3S(=O)(=O)c3ccc(C(=O)N4CCN(C)CC4)cc32)c1 -9.47%
Cc1cc(Nc2cc(Cl)ccc2C)n2nc(Cc3ccccc3)nc2n1 -10.9%
COc1cccc(CNC(=O)CCc2nc(-c3ccc(C)cc3)no2)c1 -14.6%
COc1ccccc1NC(=O)CSc1oc(-c2ccco2)nc1S(=O)(=O)c1ccc(Br)cc1 -18.1%
Cc1cc(OCCn2cc(C(=O)c3ccco3)c3ccccc32)ccc1Cl -26.3%
COc1ccc(-c2nnc(SCC(=O)Oc3cccc(C)c3C)o2)cc1 -48.1%
CCOc1cccc(C2c3[nH]c4ccccc4c3CCN2C(=O)CCc2ccccc2)c1 (configuration not stated) -29.1%
Cc1cccc(NC(=O)C2CCCN(c3nnc(-n4c(C)ccc4C)s3)C2)c1C (configuration not stated) -15.9%
O=C(NCc1noc2ccccc12)Nc1ccc(F)cc1F -9.55%
CCOC(=O)c1nc(Nc2ccccc2C)c2ccccc2n1 -17.5%
CCN(CC)S(=O)(=O)c1ccc2nc(NC(=O)c3ccc(Br)o3)sc2c1 6.65%
O=C(Nc1nc2ccc(Cl)cc2s1)c1ccc(S(=O)(=O)N2CCCC2)cc1 -7.9%
CCN(CC)c1ccc(C(=O)N2CCC(c3ccncc3)CC2)cc1 -32.3%
COc1ccc(C)cc1NC(=O)CN1C(=O)COc2ccc(S(=O)(=O)N3CCCCCC3)cc21 -19%
CCOC(=O)C1CCCN(C(=O)c2ccc3c(c2)N(Cc2cccc(Cl)c2)C(=O)c2ccccc2S3(=O)=O)C1 (configuration not stated) -31.3%
CCCN(C(=O)Cn1c(=O)oc2cc(Cl)ccc21)c1ccc(C(C)C)cc1 -14%
CC1CC2C3CCC4=CC(=O)C=C[C@]4(C)[C@@]3(F)[C@@H](O)C[C@]2(C)[C@@]1(O)C(=O)CO (some centres not stated) -7.33%
CC(C)c1ccc(NC(=O)CN2C(=O)c3cccc4cccc2c34)cc1 -10.2%
CCCN(CCC)S(=O)(=O)c1ccc(C(=O)O)cc1 -1.57%
CCc1ccc(S(=O)(=O)c2cn(C)c3cc(OC)c(OC)cc3c2=O)cc1 -1.68%
CCc1ccc2oc(C(=O)NCCc3ccc(OC)c(OC)c3)cc(=O)c2c1 0%
COc1ccccc1N1CCN(S(=O)(=O)c2cc(-c3cc(C)no3)ccc2C)CC1 -5.11%
COc1cccc(CN2C(=O)C3(SCC(=O)N3c3cc(C)cc(C)c3)c3ccccc32)c1 (configuration not stated) -45.5%
O=C(c1ccc2c(c1)OCCO2)N(Cc1cccnc1)c1nc2ccc(Cl)cc2s1 24.2%
Cc1ccc(-c2nnn(CC(=O)N(CC(=O)NCCC(C)C)c3ccc(F)cc3)n2)cc1 -8.34%
CCN(CC)C(=O)c1cccc(C)c1 1.14%
Cc1ccc(C(C)C)c(OCC(=O)Nc2nc3c(s2)CCCC3)c1 -19.8%
CCCCCOC(=O)c1ccc(Nc2nc(C(=O)OCC)nc3ccccc23)cc1 -8.49%
COc1ccc(S(=O)(=O)Nc2cc(-c3cn4cccc(C)c4n3)ccc2C)cc1C -15.6%
O=C(NCCc1ccc(F)cc1)C(=O)NCC(c1ccc2c(c1)OCO2)N1CCOCC1 (configuration not stated) -3.82%
Cc1coc2c1c(C)cc1oc(=O)c(CC(=O)NCc3ccc(Cl)cc3)c(C)c12 -5.18%
COc1ccccc1Oc1nc2c(C)cccn2c(=O)c1/C=C(\C#N)c1nc2ccccc2[nH]1 -15.4%
Cc1nn(CC(=O)NCc2cccc(F)c2)c(=O)c2c(C)n(-c3ccc(Cl)cc3)nc12 -29.7%
COc1ccc(-n2cc(C(=O)NCc3ccc(Cl)cc3)c3ccccc3c2=O)cc1 -13.1%
Cc1ccc2c(c1)c1c(c(=O)n(-c3ccccc3)c(=O)n1CC(=O)NCCC1=CCCCC1)n2C -10.9%
COc1ccc(N(C(=O)c2ccccc2C)S(=O)(=O)c2ccc(C)cc2)cc1 -20.8%
CC1CN(C(=O)CCC(=O)NCc2cccs2)c2cc(Cl)ccc2O1 (configuration not stated) -1.64%
CCOC(=O)C1=C(CN2CCN(c3cc(C)ccc3C)CC2)NC(=O)NC1c1ccccc1 (configuration not stated) -41.9%
CCOC(=O)c1cc(-c2ccc(C)cc2)n(CC(=O)Nc2ccc(OC)c(Cl)c2)c1C -44.6%
Cc1ccc(CCNC(=O)c2cc3sccc3n2Cc2ccc(Cl)cc2)cc1 -22.4%
CC(C)(C)NCC(O)COc1ccc(NC(=O)NC2CCCCC2)cc1 (configuration not stated) 10.3%
O=C(Nc1nnc(S(=O)(=O)N2CCCC2)s1)c1ccccc1Cl -4.45%
CCn1ccc2cc(S(=O)(=O)N3CCC(C(=O)NCc4ccc(OC(C)C)cc4)CC3)ccc21 -19.9%
COc1ccc(-c2nc3ccc(C(=O)NCc4ccccc4)cc3nc2-c2ccc(OC)cc2)cc1 -15.8%
Cc1ccccc1NC(=O)c1ccccc1NC(=O)c1ccccc1F -0.755%
CCCSc1nnc2c(n1)OC(CC)N(C(C)=O)c1ccccc1-2 (configuration not stated) -3.55%
O=C(CN1C(=O)COc2ccc(S(=O)(=O)N3CCCCC3)cc21)NCCc1ccc(Cl)cc1 -9.24%
COC(=O)COc1ccc(Oc2nc(NC(C)(C)C)nc(N3CCOCC3)n2)nn1 -3.76%
CCOc1ccccc1CNC(=O)Cn1nc(C)c2nn(-c3ccc(Cl)cc3)c(C)c2c1=O -25.1%
COc1ccc(N2CCN(S(=O)(=O)c3c(C)nc4sc(C)cn4c3=O)CC2)cc1 -2.61%
COc1ccc(Cc2nc3c4cnn(-c5ccccc5Br)c4ncn3n2)cc1 -4.61%
CC1=C(c2ccc(C)c(C)c2)S(=O)(=O)N(Cc2ccc(C(=O)NCc3ccc(C)cc3)cc2)C1=O -13.3%
